Data set [1] has as its system C57BL/6 mice. Briefly: Toxicity of antibody administration in mice. The class given is in vivo, mouse. The source says: (§1) 100% of animals receiving 2A2 were saved from radiation GI syndrome lethality at 15 Gy total body irradiation. In contrast, 100% of animals receiving irrelevant IgM (isotype control) or no antibody (vehicle only) consistently died with denuded intestinal mucosa and clinical evidence of radiation GI syndrome lethality. At the LD50 dose of 14 Gy total body irradiation, 2A2 plus hematopoietic stem cell transplant (HSCT) saved 100% of irradiated animals.

The subject of another data set is Jurkat cells. Briefly: Radiation-induced Jurkat cell apoptosis inhibition. Type of data set: cell-based, human. The conditions noted are these: preincubation 25-100 micrograms/mL. The method, then: Jurkat cells adjusted to 1×10^6 cell/ml in RPMI medium containing 10% FBS were administered h2A2 or m2A2 anti-ceramide antibody, and exposed to 10 Gy gamma irradiation. Cells were fixed after 16 hours, and apoptosis was quantified by Hoeschst bisbenzimide stain.
The humanization of the mouse 2A2 antibody is described in the Examples below. […] In vitro biologic activity of h2A2 IgG1 was determined using human Jurkat T lymphocytes that were exposed to 10 Gy ionizing radiation in the presence or absence of h2A2 IgG1. m2A2 IgM was used as a positive control in these experiments. […] FIG. 7.

Data set [2] relates to C57BL/6 mice. The experiment in a line: Radiation-induced intestinal endothelial apoptosis in vivo. Details: species or system mouse.
From the text: as §1

Data set [3] deals with C57BL/6 mice. The experiment in a line: Crypt microcolony assay (surviving crypts) after irradiation. The class given is in vivo, mouse. The following applies: 15 Gy WBI. The method, then: Male 6-10 week old C57Bl/6 mice were administered h2A2 monoclonal antibody 15 minutes prior to 15 Gy full body irradiation. Animals were sacrificed 3.5 days following irradiation, and tissues were processed for the crypt microcolony assay. Proximal jejunum sections were harvested for sectioning. Intestinal sections were stained with H&E, and surviving crypts were quantified according to the method of Withers and Elkund. Multiple sections from at least 3 mice were scored per data point.
The lethality of GI stem cell clonogens is best assessed by the number of crypts surviving at 3.5 days after radiation exposure, which decreases exponentially as the dose increases (C. S. Potten and M. Loeffler, Development 110 (4), 1001 (1990), H. R. Withers, Cancer 28 (1), 75 (1971), and J. G. Maj, F. Paris, A. Haimovitz-Friedman et al., Cancer Res 63, 4338 (2003)). Crypts that contain surviving stem cells proliferate at an accelerated rate, producing typical regenerative crypts that split or bud to generate new crypts, until the intestinal mucosa regains a normal architecture. […] At higher doses, however, massive stem cell clonogen loss may lead to a near total collapse of the crypt-villus system, mucosal denudation and animal death from the GI syndrome. […] A dose of 15 Gy was used in the experiments described herein. Subtotal was used for survival studies, as described in the next paragraph
TBI (total body irradiation) was used only for protection studies, SBI for mitigation studies was delivered with a Shepherd Mark-I unit (Model 68, SN643) operating ^137Cs sources. The dose rate was 2.12 Gy/min. To collect small intestinal samples, mice were sacrificed by hypercapnia asphyxiation, and 2.5 cm segments of the proximal jejunum were obtained at 2 cm from the ligament of Trietz. Tissue samples were fixed by overnight incubation in 4% neutral buffered formaldehyde and embedded in paraffin blocks. […]

Data set [4] is described as follows: ELISA binding to BSA-conjugated C16 ceramide. How it is done:
Maxisorp ELISA plates were coated overnight at 4° C. with BSA-conjugated to C16 carboxy-ceramide or BSA alone. Following blocking with 2 mg/ml non-fat milk solution, biotinylated h2A2 was added to the plate for 2 hrs at room temperature at the indicated concentration. Binding was determined following detection with HRP-conjugated streptavidin and quantification of signal by plate reader.
ELISA was performed as described in FIG. 1. Binding of humanized IgG or mouse IgM was detected with anti-human HRP or anti-mouse HRP secondary antibody.
The monoclonal antibodies, including 2A2, were made using methods known in the art and described in more detail in PCT/US08/62789. In order to make the antibody, a ceramide antigen was developed that was immunogenic enough to generate a strong antibody response from an inoculated host. […] OD was assessed following administration of HRP substrate at 650 nm. […]
To confirm the binding affinity of h2A2 to ceramide, performed a series of ELISA assays were performed using C16 ceramide covalently bound to either bovine serum albumin (BSA) or ovalbumin (OVA) via a linkage at the terminal end of the fatty acid subunit of ceramide. Briefly, h2A2 was biotinylated, and antibody binding to microplates coated with BSA- or OVA-conjugated C16 ceramide was determined using horse-radish peroxidase labeled streptavidin.

The subject of data set [5] is C57BL/6 mice. Briefly: Survival after lethal irradiation (Radiation GI Syndrome), Kaplan-Meier. The class given is in vivo, mouse. The method, then:
Male C57BL/6 mice (6-8 weeks old) were placed in a ventilated Plexiglas restrainer with head/forepaws and hind legs/tail covered by lead shield, and exposed to 15.5 Gy or 16 Gy subtotal body irradiation (SBI) (Philips MG-324 X-ray unit at a dose rate of 118.3 cGy/min, 50 cm source to skin distance). Purified 2A2 IgM (1000 μs) was administered by intravenous tail-vein injection 24 hours following irradiation.
TBI (total body irradiation) was used only for protection studies, SBI for mitigation studies was delivered with a Shepherd Mark-I unit (Model 68, SN643) operating ^137Cs sources. The dose rate was 2.12 Gy/min. To collect small intestinal samples, mice were sacrificed by hypercapnia asphyxiation, and 2.5 cm segments of the proximal jejunum were obtained at 2 cm from the ligament of Trietz. Tissue samples were fixed by overnight incubation in 4% neutral buffered formaldehyde and embedded in paraffin blocks. To evaluate intestinal tissue responses to radiation, transverse sections of the full jejunal circumference (5 micrometers thick) were obtained by microtomy from the paraffin blocks, adhered to polylysine-treated slides and deparaffinized by heating at 90 degrees Celsius for 10 minutes and at 60 degrees Celsius for 5 minutes, followed by two xylene washes for 5 minutes, and stained with hematoxylin and eosin according to a standard protocol. To determine the causes of death after TBI, autopsies were performed within 60 min of animal death or when terminally-sick animals displaying an agonal breathing pattern were sacrificed by hypercapnia asphyxiation. Tissue specimens were collected from all animals, fixed in formaldehyde, and stained with hematoxylin.
Actuarial survival of animals was calculated by the product limit Kaplan-Meier method. Terminally sick animals displaying an agonal breathing pattern were sacrificed by hypercapnia asphyxiation and evaluated by necropsy to determine cause of death. Intestinal specimens were fixed in formaldehyde, and stained with hematoxylin.

This note sets out measurements from patent US10722577B2, “Methods for treating GI syndrome and graft versus host disease” (Sloan Kettering Institute for Cancer Research, priority 2012, dated 2020).

“Also recorded” adds a separate entry of the source.

B1: 2A2: mouse monoclonal anti-ceramide IgM, ATCC Patent Deposit Designation PTA-13418 (antibody, listed as Mouse sp., V domains shown)
VH: EVQLQQSGTVLARPGASVKMSCKASGYTFTNYWMHWVKQRPVQGLEWIGAIYPGDSDTSYNQKFKGKAKLTAVTSTSTAFMELSSLTNEDSAVYYCTGLYYGYDWGQGTTLTVSS
VL: DVLMTQTPLTLSVTIGQPASISCKSSQSLIDSDGKTFLNWLLQRPGQSPKRLIYLVSKLDSGVPDRFTGSGSGTDFTLKISRVEAEDLGLYYCWQGTHFPYTFGGGTKLEIK
modifications: IgM; Mouse 2A2 Variable Heavy Chain (VH); Mouse 2A2 Variable Light Chain (VL)
On to B1, for which the toxicity of administration result in the data set with C57BL/6 mice [1] was “without toxicity”. The “inhibition of 8 Gy-induced apoptosis of Jurkat cells” value with Jurkat cells is “inhibited 8 Gy-induced apoptosis”. The “reduction of peak endothelial apoptosis within the lamina propria microvasculature” value in the data set with C57BL/6 mice [2] (1,000 μg/25 g mouse intravenous, 15 minutes prior to 15 Gy WBI) stood at 83%. Also, the “endothelial cell apoptosis in vivo” value in the data set with C57BL/6 mice [2] (mouse, in vivo) is “dose dependently inhibited endothelial cell apoptosis in vivo”. Moreover, in the data set on C57BL/6 mice [3], the “dose achieving maximal protection of crypts” value is on record as 1,000 μg/25 g mouse and the “dose achieving maximal protection of crypts, per kg” value is reported as 40 mg/kg. The “dose that increased the number of surviving crypts (P<0.05)” value in the data set with C57BL/6 mice [3] (antibody before irradiation) came to 50 μg/25 g mouse. Besides, the “binding to ceramide (ELISA)” value in data set [4] (BSA- or OVA-conjugated C16 ceramide vs BSA alone) was “bound to BSA-ceramide; also recorded: specific affinity for ceramide”. Besides, the “binding to ceramide relative to comparator antibody (ELISA)” value in data set [4] (compared with m2A2, MID15B4 or control IgM) is reported as “significantly more binding capacity of 2A2 vs. control IgM”. The irradiated animals saved in the data set with C57BL/6 mice [5] (14 Gy total body irradiation (LD50), plus HSCT) is recorded as 100%. The “animals saved from radiation GI syndrome lethality” value with C57BL/6 mice [5] (15 Gy total body irradiation) was determined as 100%. For the same molecule, in the data set with C57BL/6 mice [5] (17 Gy total body irradiation), the GI tracts protected amounted to 50%, the “mice that succumbed dying with intact GI tracts” value is recorded as 33% and the “pretreated mice surviving ad infinitum” value came out at 25%. The mouse survival result in the data set with C57BL/6 mice [5] (antibody alone, 24 hours following 15.5 Gy SBI) is given as “improves mouse survival; also recorded: mouse survival was significantly improved”.
